From article PMC6919601, “Identification of Plasmodium dipeptidyl aminopeptidase allosteric inhibitors by high throughput screening” (PLoS ONE, 2019)
Several values for one entry are separate records, joined by “and”; a condition that tells them apart may be missing. Equal entries are not always repeated. The campaign covered roughly 110,000 compounds. About 230 (0.21%) showed an effect of 50% or more. This is one part of the list.

molecular target: DPAP1 (Plasmodium falciparum, UniProt Q8IIJ9); experiment: primary screen, percent inhibition; read by cleavage of a fluorogenic dipeptide substrate; higher = more effect of the substance; parameters: species or system P. falciparum D10 trophozoite lysates; single well
Sequence (Q8IIJ9 whole entry, looked up): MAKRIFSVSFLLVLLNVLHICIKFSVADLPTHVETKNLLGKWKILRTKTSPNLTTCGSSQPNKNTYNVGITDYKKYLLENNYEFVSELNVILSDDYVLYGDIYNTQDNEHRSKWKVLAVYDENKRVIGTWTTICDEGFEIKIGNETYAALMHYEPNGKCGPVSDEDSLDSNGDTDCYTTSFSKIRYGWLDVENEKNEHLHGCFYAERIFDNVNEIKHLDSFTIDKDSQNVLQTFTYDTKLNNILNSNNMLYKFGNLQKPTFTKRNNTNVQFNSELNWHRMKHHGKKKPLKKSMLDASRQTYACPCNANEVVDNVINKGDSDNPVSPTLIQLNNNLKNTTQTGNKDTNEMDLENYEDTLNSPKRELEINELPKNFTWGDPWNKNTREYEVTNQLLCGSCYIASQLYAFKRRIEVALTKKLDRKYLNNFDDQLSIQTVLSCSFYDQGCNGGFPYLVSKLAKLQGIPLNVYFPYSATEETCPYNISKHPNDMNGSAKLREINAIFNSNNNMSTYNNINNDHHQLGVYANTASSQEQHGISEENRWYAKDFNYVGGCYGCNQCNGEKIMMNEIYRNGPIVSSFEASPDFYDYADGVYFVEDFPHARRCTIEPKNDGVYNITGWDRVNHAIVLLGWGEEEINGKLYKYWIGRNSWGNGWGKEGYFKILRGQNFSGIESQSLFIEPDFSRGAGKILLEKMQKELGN
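Note: 30 min substrate incubation versus DMSO and 10 µM JCP410 controls.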

Point of comparison: CC1(C)CC2=Nc3nc(C(F)(F)F)nn3C(c3ccc(F)c(Br)c3)C2=C(O)C1 (stereo not shown), “% Inhibition @ 10 uM” value 0.0842%. Against it:
- Cc1nc2cccnc2n1-c1ccc(CCC(=O)O)cc1 — higher, 4.79%
- COc1ccc(CCNS(=O)(=O)c2cc(C)ccc2C)cc1OC — lower, -1.59%
- Cc1cc(C)c(C#N)c(SCC(=O)Nc2nccs2)n1 — higher, 1.6%
- C=CCOc1ccc(C(=O)C2=C(O)C(=O)N(CCN3CCOCC3)C2c2ccc(F)cc2)c(C)c1 (stereo not shown) — lower, -1.93%
- CC1=C(C(N)=O)C(c2ccccc2OC(F)F)n2ncnc2N1 (stereo not shown) — lower, -0.403%
- CCCC1=NN(C(=O)c2ccc(OC)cc2)C(O)(C(F)(F)F)C1 (stereo not shown) — higher, 12.4%
- CS(=O)(=O)N(CC(=O)Nc1ccccc1-c1ccccc1)c1ccc(F)cc1 — higher, 5.31%
- COc1ccc(-c2[nH]nc3c2C(c2ccc(Br)cc2)C(C#N)=C(N)O3)cc1 (stereo not shown) — higher, 5.83%
- Cc1csc(-c2coc3cc(O)cc(C)c3c2=O)n1 — lower, -1.96%
- NC(=O)c1ccccc1NC(=O)C1CCCCC1C(=O)O (stereo not shown) — lower, -0.992%
- O=C(/C=C/c1ccc(Cl)cc1)C1CC1 — higher, 11.9%
- CN(C)c1cc(N)c2ccccc2n1 — lower, -2.15%
- O=C(CCn1c(=O)c2cccn2c2cccnc21)NCCc1ccccc1 — higher, 2.83%
- CC(CCc1ccccc1)NC(=O)c1ccc2nc(N3CCCCC3)sc2c1 (stereo not shown) — lower, -2.37%
- Cc1ccc(-n2c(C)cc(/C=C3\C(=N)N4N=C(N5CCOCC5)SC4=NC3=O)c2C)cc1Cl — lower, -1.66%
- CC(=O)c1cc(C(=O)Nc2ccccc2C(=O)O)oc1C — lower, -0.171%
- Cc1csc(NC(=O)CSc2nnc(Cc3cccn3C)n2C)n1 — lower, -0.0593%
- Cc1ccc(S(=O)(=O)NCCCOC(=O)Nc2nonc2C)cc1 — lower, -3.69%
- CC(NC(=O)c1ccco1)c1nc(-c2ccc(C(C)(C)C)cc2)no1 (stereo not shown) — lower, -8.39%
- COCc1c(Br)c(C)nc(N2CCOCC2)c1C#N — higher, 0.776%
- Cc1ccccc1N1C(=O)C(Cl)=C(Nc2ccccc2)C1=O — lower, -0.864%
- Cc1c(CNCCCc2ccccc2)c(C(=O)O)c(C)n1Cc1ccc(F)cc1Cl — lower, -3.67%
- Cc1ccc(NC(=O)CCCOc2ccccc2C)cc1 — lower, -1.11%
- Cc1nn(CC(=O)NCc2ccccc2)c(=O)c2cccn12 — lower, -6.82%
- CCCCc1ccc(C2C(C#N)=C(N)OC(C)=C2C(=O)OCC)s1 (stereo not shown) — higher, 11.2%
- Cc1ccc(C)n1-c1nnc(N2CCCC(C(=O)O)C2)s1 (stereo not shown) — lower, -5.15%
- Cc1cc(C)n(-c2nc3ccccc3n3c(CCC(=O)O)nnc23)n1 — lower, -5.98%
- CCOC(=O)c1c(NC(C)=O)sc2c1CCN(C(=O)OCC)C2 — higher, 3.01%
- Cc1cccc(C2NC(c3cccc(C)c3)C(C)C(=O)C2C)c1 (stereo not shown) — lower, -4.51%
- Oc1oc(-c2ccccc2)nc1/C=N/c1ccccn1 — higher, 7.62%
- Cn1c(=O)c2c(nc3n(C4CCCCC4)c(-c4ccc(Cl)cc4)cn23)n(C)c1=O — lower, -4.91%
- CC1=CC(C)(C)N(C(=O)Nc2ccc(C)cc2)c2ccccc21 — lower, -1.36%
- N#Cc1ccccc1Sc1ccccc1C(=O)NCc1ccc2c(c1)OCO2 — higher, 7.93%
- Cc1ccc(OCC(=O)Nc2ccc(CC#N)cc2)cc1C — lower, -1.52%
- COc1cc(/C=C/C(=O)Nc2nnc(CC(C)(C)C)s2)cc(OC)c1OC — higher, 8.12%
- c1ccc2c(NCCN3CCCCC3)c3c(nc2c1)CCC3 — higher, 2.74%
- COc1cccc(C2C(C(=O)c3ccc(Br)cc3)=C(O)C(=O)N2c2cccnc2)c1 (stereo not shown) — higher, 1.05%
- O=C(O)/C(S)=C\c1ccccc1 — higher, 19.2%
- CCC(C)(C)C(=O)Nc1ccc(C(N)=O)cc1 — higher, 1.29%
- CCCCNC(=O)c1[nH]nnc1-c1ccccc1O — higher, 0.847%
- Fc1ccc(CN2CCN(c3ccc(Cl)cc3)CC2)cc1 — higher, 5.55%
- CN(Cc1ccccc1F)CC(O)c1ccccc1 (stereo not shown) — lower, -3.8%
- CCOC(=O)C1=C(C)N=c2s/c(=C\c3ccc(N(C)C)o3)c(=O)n2C1c1cccs1 (stereo not shown) — lower, -3.98%
- COc1ccc(/C=C2/SC(=O)N(CCc3nnc(N)s3)C2=O)cc1 — higher, 3.16%
- O=C1CSC(c2cccc(Cl)c2Cl)N1c1ccccn1 (stereo not shown) — lower, -3.69%
- Cc1cc(C)n2nc(COc3ccccc3)nc2n1 — lower, -6.04%
- CCCc1nc(C)cc(N2CCCC(C)C2)n1 (stereo not shown) — higher, 11.1%
- CCOC(=O)N1CCN(C(=O)Cn2sc3nc(C)cc(C)c3c2=O)CC1 — higher, 9.33%
- COc1cccc(-c2nnc(-c3ccncc3)o2)c1 — higher, 2.41%
- CCOC(=O)c1nnn(-c2nonc2N)c1CSc1nc2cc(C)ccc2[nH]1 — higher, 6.37%
- CC(C)C[C@H](NC(=O)c1cc2cc(OCCN3CCOCC3)ccc2o1)C(=O)NCC#N — higher, 0.173%
- COCC(C)NC(=O)Cn1nc(C)c(NC(=O)c2cc(-c3ccccc3F)no2)c1C (stereo not shown) — higher, 5.59%
- Cc1cccc(-c2cc(C(=O)N3CCN(c4ncccn4)CC3)c3ccccc3n2)c1 — higher, 2.32%
- CC1=CC(=O)C=C(C)C1=NOC(=O)/C=C\c1ccccc1 — higher, 3.34%
- COc1cccc(/C=C2/C(=N)N3N=C(C4CCCCC4)SC3=NC2=O)c1O — higher, 5%
- CCCCOc1ccc(C2c3c(-c4cc(C)ccc4O)n[nH]c3C(=O)N2CCO)cc1OC (stereo not shown) — lower, -1.15%
- COCCN1C(=O)C(O)=C(C(=O)c2ccc(OC)c(C)c2)C1c1ccc(F)cc1 (stereo not shown) — higher, 1.86%
- Cc1cc(C)c(NC(=S)NC(=O)c2ccccc2)c(C)c1 — higher, 15.4%
- CCS(=O)(=O)N1CCC2(CC1)OC(=O)C(C)=C2C(=O)N1CCN(c2ncccn2)CC1 — higher, 2.91%
- CC(C)=CCCC(C)CN(CCO)Cc1ccccc1 (stereo not shown) — higher, 2.7%
- O=C(O)C1C2CCC(O2)C1C(=O)Nc1ccccc1Cl (stereo not shown) — higher, 0.231%
- O=C1NC(=O)/C(=C\c2ccc(Sc3ccc(Cl)cc3)o2)N1 — higher, 5.37%
- COC(=O)c1ccc(C2Oc3ccccc3C3CC(c4ccccc4O)=NN32)cc1 (stereo not shown) — lower, 0.0719%
- Cc1ccc(S(=O)(=O)NC(=O)COc2ccccc2)cc1 — higher, 0.389%
- Cc1ccc(S(=O)(=O)c2nc(S(C)(=O)=O)sc2N2CCC(C(N)=O)CC2)cc1 — lower, -5.89%
- OCCN(Cc1ccccc1)CC1CC=CCC1 (stereo not shown) — higher, 1.38%
- CC(C)N1CC(C)C(O)(c2ccccc2)CC1C (stereo not shown) — lower, -1.93%
- Nc1nc(N)c2ncc(C(=O)CCc3ccccc3)nc2n1 — lower, -6.07%
- CCCCC(O)(CCCC)c1ccccc1O — lower, -2.44%
- COc1ccc(CCNCc2ccc(C)cc2)cc1OC — higher, 0.131%
- CCOC(=O)N1CCC(NC(=O)CN2C(=O)CSc3nc(C)cc(C)c32)CC1 — lower, -2.37%
- CCN(CC)C(=O)CN(c1ccc(C)cc1)S(=O)(=O)c1ccc(F)cc1 — higher, 0.873%
- CC(C)Sc1nc(O)c2cnn(-c3ccccc3)c2n1 — higher, 1.9%
- NC(=O)c1c(NS(=O)(=O)c2ccc(F)cc2)sc2c1CCCC2 — lower, -3.44%
- COc1ccc(-c2ccnc3c(OC)ccc(N)c23)cc1OC — higher, 4.27%
- CCCCSc1nc2c(c(=O)n1C)SC(C)C2 (stereo not shown) — higher, 1.97%
- CC1CCN(C(=O)CN(c2cccc(F)c2)S(C)(=O)=O)CC1 — higher, 2.95%
- CC(C)C[C@H](Nc1nc(-c2ccc([N+](=O)[O-])cc2)cs1)C(=O)NCC#N — lower, -4.72%
- COC(=O)c1c(NC(=O)COc2ccc3c(C)cc(=O)oc3c2)sc2c1CCCC2 — higher, 11.8%
- CCCC[C@H](NC(=O)[C@H](CCC)N[C@@H](c1ccc(-c2ccc(S(C)(=O)=O)cc2)cc1)C(F)(F)F)C(=O)c1nnc(-c2ccco2)o1 — lower, -3.04%
- CN1CCC(O)(c2ccccc2)C(C)(C)C1 (stereo not shown) — higher, 1.41%
- O=C(NCC1CCCO1)c1ccc(F)cc1 (stereo not shown) — lower, -0.414%
- CCOC(=O)c1c(NC(=O)CSc2nc(SC)ns2)sc2c1CCCC2 — lower, -4.75%
- COc1cccc(/C=C2\C(=O)N(c3ccc(Cl)cc3)N=C2C)c1OC — higher, 0.716%
- Cc1onc(-c2ccccc2)c1C(=O)NC1=NCCS1 — lower, -5.82%
- O=C1/C(=C/c2cccnc2)Sc2ccccc21 — lower, -1.59%
- CCN(CC)CCn1c(NC(=O)c2ccc(Cl)cc2Cl)nc2ccccc21 — lower, -5.47%
- Cc1ccc(S(=O)(=O)c2sc(N)c(C#N)c2C)cc1 — higher, 1.84%
- Cc1ccccc1NC(=O)CN1C(=O)c2ccccc2C1=O — higher, 0.545%
- COc1ccc(C2(C(=O)N3CCCCC3)CCCC2)cc1OC — higher, 6.16%
- O=C(COc1ccc(Cl)cc1)Nc1ccccc1C(F)(F)F — higher, 7.15%
- CCc1ccc(C2CC(c3cccc(Br)c3)n3ncnc3N2)cc1 (stereo not shown) — lower, -11%
- CCn1c(=S)[nH]c2sc3c(c2c1=O)CCC3 — higher, 64.7%
- c1ccc(N2CCN(Cc3ccoc3)CC2)nc1 — higher, 4.81%
- Cc1ccc(C2=NN3C(C2)c2ccccc2OC3c2ccncc2)cc1 (stereo not shown) — higher, 38.7%
- Cc1cccc(C(=O)Nc2ccc(NC(=O)c3cccc(C)c3)c([N+](=O)[O-])c2)c1 — higher, 1.66%
- O=C(CCCOc1ccc(Cl)cc1Cl)Nc1ccc(S(=O)(=O)N2CCCC2)cc1 — lower, -2.94%
- N#CCNC(=O)[C@H](CSCc1ccccc1)NC(=O)c1cccs1 — lower, -6.56%
- COCCNC(=S)NCCc1c(C)[nH]c2ccc(Cl)cc12 — lower, -2.16%
- Cc1cc2nc(O)c(O)nc2cc1S(=O)(=O)N1CCOCC1 — higher, 5.4%
- CCN(CC)C(=O)C1CCCN(Cc2cccc(Br)c2)C1 (stereo not shown) — lower, -4.5%

In the case of O=C(O)CCC(=O)Nc1ccc(NC(=O)c2ccco2)cc1, the “% Inhibition @ 10 uM” value is reported as 0.777% and -2.29%.
